Measurements taken from PubChem BioAssay AID1814 (Broad Institute, 2009).
The campaign covered roughly 300,000 compounds. About 22,000 (7.3%) were called active. The inconclusive results got no clear call from the source; some entries with a clear call stand among them for comparison. Rule as the data show it: active = activity score below about -60%; inconclusive = mostly about -28% to -61%; inactive = positive scores.

Assay: Activators via SNCA 5'UTR binding, MLPCN (AID 1814)
Conditions: alpha-synuclein 5'UTR reporter, activators screen; hits give low values; tested at 7.5 µM

Row | Compound | activity score
1 | CC(C)NC(=O)c1ccc2c3n(nc2c1)-c1ccccc1CO3 | inactive: 52.2%
2 | Cc1ccc(-c2csc(NC(=O)CSc3nc4ccccc4[nH]3)n2)cc1 | inconclusive: -54.1%
3 | O=C(NCCc1ccccc1)c1ccc(Cl)c(S(=O)(=O)N2CCOCC2)c1 | inconclusive: -47.2%
4 | Cc1cc(C)n2ncc(/C(N)=N/OC(=O)Nc3ccc(Cl)cc3)c2n1 | inconclusive: -52.7%
5 | O=C(COc1ccccc1)NC(=S)N1CCc2ccccc21 | inconclusive: -46.9%
6 | O=C(c1cc(COc2ccc3ncccc3c2)on1)N1CCCC(O)C1 (stereo unspecified) | inconclusive: -36.1%
7 | O=C(N/N=C/C=C\c1ccccc1[N+](=O)[O-])c1ccccn1 | inconclusive: -57.7%
8 | Cc1cc(C)c(NS(=O)(=O)c2cccc3cccnc23)c(C)c1 | inconclusive: -38.2%
9 | COCc1cc(C)nc2sc(C(=O)Nc3ccc(OC)cc3)c(N)c12 | inconclusive: -52%
10 | COc1ccccc1NC(=O)/C(C#N)=C/c1cccn1C | inconclusive: -61%
11 | CCCCCCCN1C(Nc2ccccc2)=NC[C@@H]1CC(C)C | inconclusive: -28%
12 | O=C(O)c1cccc(N/N=C/c2sc(N3CCOCC3)nc2-c2ccccc2)c1 | inconclusive: -56.9%
13 | Cc1ccc(C(=O)CCNc2ccc(Br)cc2)o1 | active: -99.3%
14 | CSc1nnc(NC(=O)c2ccc3c(c2)OCO3)s1 | inactive: 81.4%
15 | Cc1ccc(-c2nc(-c3ccncc3)no2)cc1Cl | active: -98.7%
16 | C(=N\Nc1ccc2ccccc2n1)/c1ccc2c(c1)OCCO2 | inactive: 108%
17 | O=C(OCc1nnc(-c2ccccc2)o1)c1cn(-c2ccccc2)nc1-c1ccccc1 | inconclusive: -37.7%
18 | O=C(/C=C/c1ccc(Cl)cc1Cl)NCc1ccncc1 | inconclusive: -32.7%
19 | O=C(Cc1csc(NC(=O)Nc2cccc(Cl)c2)n1)NC1CCCC1 | inconclusive: -59.8%
20 | CN(C)CCCN(C(=O)c1ccc(C(=O)c2ccccc2)cc1)c1nc2cc3c(cc2s1)OCO3 | inactive: 60.6%
21 | COC(=O)c1ccc(OCC(=O)c2cccc(OC)c2)cc1 | inconclusive: -61.3%
22 | O=C(NNC(=O)c1ccccc1OCc1ccc(F)cc1)c1ccccc1O | inactive: 67.5%
23 | CCCC(=O)Nc1nc(C)c(-c2csc(Nc3cc(OC)ccc3OC)n2)s1 | inactive: 61.2%
24 | Cc1ccc(NC2=C(N3CCCCC3)C(=O)c3ccccc3C2=O)cc1 | inconclusive: -44.5%

Row | Compound | activity score
25 | Cc1c(NS(C)(=O)=O)cccc1-c1nc2cccnc2s1 | active: -64.4%
26 | O=[N+]([O-])/C=C/c1cn(Cc2ccc(F)cc2)c2ccccc12 | inactive: 63.2%
27 | OC1CCCN(Cc2ccc3c(c2)Cc2ccccc2-3)C1 (stereo unspecified) | inconclusive: -56.5%
28 | O=C(Nc1ccccc1Cl)c1cc2ccccc2o/c1=N\O | active: -121%
29 | COc1cc(NC(=O)c2ccc(N)nc2)cc(C(=O)Nc2cccc(C(F)(F)F)c2)c1 | inconclusive: -57.4%
30 | CC(C)c1c(C(=O)N/N=C/c2cccs2)nnn1-c1nonc1N | inconclusive: -52.4%
31 | Nc1ncnc(Sc2ccc(Cl)cc2)c1[N+](=O)[O-] | inconclusive: -51.1%
32 | C/C(=N\O)C(C)(C)NC(=O)Nc1ccc(Cl)cc1 | inconclusive: -54%
33 | C#CCSc1nnc(-c2sc(-c3ccccc3)nc2C)n1C | active: -66.8%
34 | CC(C)c1ccc(OCc2ccc(C(=O)N3CCN(c4ccccn4)CC3)cc2)cc1 | inconclusive: -60.9%
35 | CCCCNc1nc(Cl)nc(Nc2ccc(C)cc2)n1 | inconclusive: -47%
36 | C=CCNc1sc(C(=O)c2ccccc2)c(N)c1C#N | inactive: 57.9%
37 | Clc1ccccc1/C=C/c1nc(-c2ccccn2)no1 | inactive: 104%
38 | CN1CCN(Cc2cc(COCc3ccccc3)c3cccnc3c2O)CC1 | inactive: 99.4%
39 | NS(=O)(=O)c1ccc(NC(=O)Nc2ccc3c(c2)OCO3)cc1 | active: -118%
40 | CC1CCN(c2cc(=O)n(C3CCCCC3)c(=O)[nH]2)CC1 | inconclusive: -48.7%
41 | Cc1onc(-c2ccccc2)c1C(=O)NC(=S)NNC(=O)c1ccccc1O | inactive: 62.6%
42 | Cc1cccc(NC(=O)NCc2ccc3[nH]c(C)cc3c2)c1 | inconclusive: -58.8%
43 | CCc1ccc(-c2cc(C(=O)NCCCn3ccnc3)c3ccccc3n2)s1 | inconclusive: -61.3%
44 | Cc1cccc(N2CCN(C(=O)c3noc4c3COc3ccc(C)cc3-4)CC2C)c1 (stereo unspecified) | inconclusive: -38.3%
45 | CCOC(=O)c1cnn(-c2cc(Oc3cccc(C)c3)ncn2)c1N | inconclusive: -61.5%
46 | Cc1ccc(S(=O)(=O)N(C)CC(=O)OCC(=O)NC(=O)Nc2ccc3c(c2)OCCO3)cc1 | inconclusive: -58.9%
47 | Cc1nc(CN(C)C(=O)c2cc(COc3c(F)cccc3F)on2)cs1 | inconclusive: -49%
48 | CC(C)c1ccc(COc2ccc(C(=O)N3CCOCC3)cc2)cc1 | inconclusive: -52.4%

Row | Compound | activity score
49 | Cc1nc(CSc2ccc(Cl)cc2)cs1 | inconclusive: -55.3%
50 | CC(=O)COC(=O)c1ccc2noc(-c3ccccc3)c2c1 | active: -78%
51 | O=C(CSCc1ccccc1Br)N/N=C/c1ccc(OCC(=O)N2CCCCC2)cc1 | inconclusive: -41.8%
52 | COc1ccc2sc3c(=O)[nH]c4ccccc4c3c2c1 | inactive: 63%
53 | O=C(Nc1ccc(F)c(F)c1)c1ccco1 | inconclusive: -49.3%
54 | CC(C)(C)NC(=O)NC(=O)COc1ccccc1C#N | inconclusive: -50.5%
55 | Cc1c(Cl)cnc(NC(=O)COC(=O)c2ccc3ncsc3c2)c1Cl | inactive: 67.1%
56 | N#C/C(=C\c1cn(Cc2ccccc2)c2ccccc12)C(=O)NCc1ccco1 | inactive: 67.8%
57 | CC(=O)OCCc1c2ccccc2c(CCCN(C)C)c2ccccc12 | inactive: 103%
58 | COc1ccc(C2=C(C=O)Cc3ccccc3O2)cc1 | inactive: 98%
59 | CN1C(=O)C(O)(CC(=O)c2ccc(F)cc2)c2cc(Br)ccc21 (stereo unspecified) | inconclusive: -57.8%
60 | CC(C)OC(=O)C(C)Oc1ccc(C(=O)NCCc2ccccc2)cc1 (stereo unspecified) | inconclusive: -44.7%
61 | Brc1ccc2nc(-c3cccs3)c(NCC3CCCO3)n2c1 (stereo unspecified) | active: -175%
62 | Cc1ccccc1NC(=O)/C=C/c1cccs1 | active: -119%
63 | Cc1ccc(CNC(=O)CN(c2ccc(Cl)cc2)S(C)(=O)=O)cc1 | inconclusive: -47.4%
64 | CCCC/C(=N\NC(=O)c1ccc(Br)o1)c1ccccc1 | active: -68.9%
65 | CCCc1cc(=O)[nH]c(-n2[nH]c3c(c2=O)CCCC3)n1 | inactive: 55.9%
66 | CCCCN(CC)CCNC(=O)c1cc2c(=O)n(CC)c3ccccc3c2s1 | active: -274%
67 | CCOC(=O)Nc1nc(-c2ccccc2)c(C(=O)c2ccccc2)s1 | inactive: 117%
68 | O=C(CSc1ncc(-c2ccc(F)cc2)[nH]1)N1CCCCC1 | inconclusive: -54.2%
69 | Fc1ccc(NC(=S)NCCc2ccccc2)c(F)c1F | inconclusive: -43.3%
70 | Cc1ccccc1C(=O)O/N=C/c1c(N2CCOCC2)n(C)c2ccccc12 | inactive: 86.5%
71 | COc1ccc(NC(=O)/C=C/c2ccc(Br)o2)cn1 | inconclusive: -58%
72 | c1ccc2c(c1)CCN(c1nc3cc4c(cc3s1)OCCO4)C2 | inactive: 75.1%

Row | Compound | activity score
73 | CCCOc1ccc(CSc2nc3ccccc3[nH]2)cc1 | active: -127%
74 | c1ccc2sc(N3CCOCC3)nc2c1 | active: -64.9%
75 | O=C(N/N=C/c1ccc([N+](=O)[O-])cc1)c1ccccc1OCc1ccccc1 | inconclusive: -36.5%
76 | COc1ccc(CNc2ccc(Br)cc2)cc1 | active: -112%
77 | CC(=O)Nc1ccc(NC(=O)c2ccnn2C)cc1 | inconclusive: -57.3%
78 | Cn1nnc(-c2ccc(OCc3ccccc3F)cc2)n1 | inconclusive: -54.1%
79 | Oc1ccc[n+](/C=C\c2ccccc2)c1 | inconclusive: -36.3%
80 | Cn1c(O)c(N=NC(=S)Nc2ccccc2F)c2cc(S(=O)(=O)N3CCOCC3)ccc21 | inactive: 94.9%
81 | Cc1ccc(/C=C2\SC(=S)N(CCCC(=O)Nc3cc(C)on3)C2=O)cc1 | inactive: 57.9%
82 | COc1ccc(S(=O)(=O)N/N=C(/C)c2ccc(C)o2)cc1 | inconclusive: -38.6%
83 | C(=N\Nc1nc2ccccc2[nH]1)/c1c[nH]c2ccccc12 | active: -224%
84 | O=C(Nc1cccnc1)c1ccc(Cl)c(S(=O)(=O)N2CCCCCC2)c1 | inconclusive: -49.8%
85 | Cc1cc(=O)oc2cc(Oc3ncccc3[N+](=O)[O-])ccc12 | inconclusive: -53%
86 | Cc1nnc(NC(=O)c2c(F)c(F)c(F)c(F)c2F)s1 | active: -73%
87 | O=C(COC(=O)/C=C/c1ccccc1Cl)NCc1ccco1 | inconclusive: -33.2%
88 | O=C(CSc1ccc(F)cc1)NC12CC3CC(CC(C3)C1)C2 | inconclusive: -59.1%
89 | COc1ccc(CNC(N)=O)cc1 | inconclusive: -49.4%
90 | CSC1=NCCN1C(=O)Cc1ccc(-c2ccccc2)cc1 | inconclusive: -38.9%
91 | O=C(OCc1ccc(Cl)c(Cl)c1)c1ccc[nH]1 | active: -82.5%
92 | O=C(CCSc1ccccc1)Nc1nc2c(s1)CCCC2 | active: -85.6%
93 | COC(=O)C1=C(C)NC(c2c(O)ccc3ccccc23)C(C(=O)OC)=C1C (stereo unspecified) | inconclusive: -45.4%
94 | Nc1ncnc(NCc2ccccc2)c1[N+](=O)[O-] | inconclusive: -51.4%
95 | O=C(/C=C/c1ccccc1)c1ccccc1O | inconclusive: -55.4%
96 | COc1ccc(/C=N/N=C2/SCC(=O)N2Cc2ccccc2)cc1 | active: -170%
